Experimental data published in PubChem BioAssay AID488969 (Vanderbilt High Throughput Screening Facility, 2010).
Over roughly 110,000 compounds, “z-score” has its median near -0.1; the highest 2% begin near 2. The list shows a part of the results. Calls of active or inactive are those of the source.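 Rule for the calls: active = z-score in the third read window above 3 or below -3; inactive = the rest.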

biological target: Metabotropic glutamate receptor 8 (Rattus norvegicus) (UniProt P70579); experiment: rat mGluR8 modulators via GIRK flux, primary screen, cell-based, thallium flux, HTS (AID 488969); settings: HEK293 rat mGluR8, GIRK (G protein-gated inwardly rectifying potassium channel) thallium flux, FluoZin2; at 10 µM; stronger effect = higher value; submaximal glutamate (EC20) added with thallium
UniProt P70579, sequence (P70579 whole entry, looked up): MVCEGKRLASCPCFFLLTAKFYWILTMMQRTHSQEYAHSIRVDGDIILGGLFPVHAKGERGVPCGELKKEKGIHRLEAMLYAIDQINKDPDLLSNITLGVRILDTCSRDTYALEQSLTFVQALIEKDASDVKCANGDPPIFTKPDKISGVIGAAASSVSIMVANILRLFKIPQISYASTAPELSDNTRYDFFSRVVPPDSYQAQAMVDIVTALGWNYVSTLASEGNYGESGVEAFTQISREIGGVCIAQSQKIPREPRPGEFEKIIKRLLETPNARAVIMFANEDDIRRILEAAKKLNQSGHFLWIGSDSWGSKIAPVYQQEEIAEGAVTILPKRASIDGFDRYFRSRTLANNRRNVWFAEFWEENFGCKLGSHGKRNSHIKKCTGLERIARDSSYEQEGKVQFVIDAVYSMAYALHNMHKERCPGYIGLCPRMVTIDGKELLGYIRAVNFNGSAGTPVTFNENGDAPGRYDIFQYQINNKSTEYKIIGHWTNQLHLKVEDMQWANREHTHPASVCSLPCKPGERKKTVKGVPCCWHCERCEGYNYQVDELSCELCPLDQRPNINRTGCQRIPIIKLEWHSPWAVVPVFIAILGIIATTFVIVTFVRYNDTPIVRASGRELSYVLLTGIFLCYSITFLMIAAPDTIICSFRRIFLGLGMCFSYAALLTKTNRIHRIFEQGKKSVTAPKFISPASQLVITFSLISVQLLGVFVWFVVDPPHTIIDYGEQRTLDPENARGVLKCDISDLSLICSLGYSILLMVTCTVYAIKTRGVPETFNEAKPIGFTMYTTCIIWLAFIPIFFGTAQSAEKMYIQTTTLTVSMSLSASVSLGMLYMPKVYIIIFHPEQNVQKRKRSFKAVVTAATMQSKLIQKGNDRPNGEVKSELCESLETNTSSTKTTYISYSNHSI

Compound	z-score
Cc1ccc(-c2noc(C3CCCN(C(=O)c4ccc(F)cc4F)C3)n2)cc1 (stereo not drawn)	-0.802
CCOC(=O)C1=C(C)N(C)C(=O)NC1c1ccccc1OC (stereo not drawn)	0.0572
O=C1CCC(C(=O)O)(c2ccccc2)C1 (stereo not drawn)	-0.0195
CC(=O)Oc1ccc(C(=O)[C@H]2[C@H]3C(=O)N(c4cccc5ccccc45)C(=O)[C@H]3[C@@H]3C=CC=NN32)cc1	1.24
COc1cccc(-n2c(Cc3cc(=O)[nH]c(=O)[nH]3)nnc2SCc2cccnc2)c1	0.187
Cc1ccc(-c2noc(CCC(=O)Nc3ccccc3N3CCN(C)CC3)n2)cc1	1.14
O=C(C(Cc1ccccc1)N1C(=O)C2C3C=CC(C3)C2C1=O)N1CCCCC1 (stereo not drawn)	-0.174
COCCNC(=O)C1c2ccccc2C(=O)N(CCOC)C1c1ccc(F)cc1 (stereo not drawn)	0.14
Cc1sc2nc(CSCC(=O)N(C)c3ccccc3)[nH]c(=O)c2c1C	-0.125
CCCS(=O)(=O)N1CCCC(c2nc(-c3ccc(OC)cc3)no2)C1 (stereo not drawn)	0.0798
O=C(NC1CCCCC1)C(c1ccccc1)N(C(=O)Cc1ccsc1)c1ccccc1 (stereo not drawn)	-0.0429
Cc1cccc(/C(N)=N/OC(=O)N2c3ccccc3Sc3ccccc32)c1	-0.461
Cc1[nH]nc(SCC(=O)NCc2ccc(F)cc2)c1[N+](=O)[O-]	-0.231
CSCCOC(=O)C1=C(C)NC(=O)CC1c1ccccc1Cl (stereo not drawn)	-1.78
O=C(CCCC(=O)OCC1CCCO1)OCC1CCCO1 (stereo not drawn)	0.152
O=C(O)CCCCCN1C(=O)c2ccc(C(=O)O)cc2C1=O	-0.139
COc1ccc(C)cc1NC(=O)CSc1nnc(COc2ccc(C)cc2)n1Cc1ccco1	-0.283
CCOC(=O)N1CCC(NC2CCCCCCC2)CC1	0.469
CSCCC(NS(=O)(=O)c1ccc2ccccc2c1)C(=O)OCC(=O)c1ccc(C(C)C)cc1 (stereo not drawn)	0.133
CCc1nnc(NC(=O)C2CCCN(c3nc(C)cc(C)n3)C2)s1 (stereo not drawn)	0.0266
Cc1onc(-c2ccccc2Cl)c1C(=O)NCc1ccc(S(N)(=O)=O)cc1	0.118
CCOC(=O)Nc1sc2c(c1C(=O)OCC)CCC2	0.418

Compound	z-score
Cc1oc2ccc(O)c(CN3CCOCC3)c2c1C(C)O (stereo not drawn)	-0.147
CC(=O)NC1=NN(c2ccccc2)C(=O)C1	0.0492
COc1cc2c(cc1OC)CN(S(C)(=O)=O)CC2	0.0161
COc1ccc(OC)c(S(=O)(=O)NC2CCCCC2)c1	0.263
O=C(N1CCOCC1)N1CCN(c2nc(-c3ccccc3)cs2)CC1	0.418
CCOc1ccc(C2N(c3ccc(OC)cc3)C(=O)C3CCCN32)cc1OC (stereo not drawn)	0.63
CCOC(=O)C(=CNc1cccc(C)n1)C(=O)OCC	-0.58
COC(=O)c1c(S(=O)(=O)NCc2ccccc2)sc(C(=O)O)c1C	-0.417
CCN1CCn2c3c(c4cc(Br)ccc42)CCCC31 (stereo not drawn)	-0.882
C#CCn1c(=NC(=O)c2cccs2)sc2cccc(OCC)c21	0.199
CCc1nc(N2CCOCC2)c(C#N)c2c1CCCC2	-1.43
CS/C(=N\S(=O)(=O)c1cccs1)Nc1ccc(F)cc1	1.49
O=C(NCc1nc(-c2ccccc2)no1)c1ccc(Br)o1	-0.168
O=C(CCc1ccc(S(=O)(=O)NCCc2ccccc2)cc1)N1CCN(Cc2ccc3c(c2)OCO3)CC1	-0.243
O=C(COc1ncnc2ccccc12)Nc1cccc(S(=O)(=O)N2CCOCC2)c1	-0.18
CC(C)Cc1nnc(NS(C)(=O)=O)s1	0.0252
COc1ccc(CNCc2ccco2)cc1OCc1ccccc1	0.176
CC1(C)CC(CCN(Cc2ccccc2)C(=O)c2ccco2)(c2ccccc2)CCO1 (stereo not drawn)	0.0289
Cc1nc(NC(=O)c2ccccc2)sc1-c1csc(Nc2cccc(F)c2)n1	-0.0632
Cc1cc(N2CCCC2=O)cc(C)c1S(=O)(=O)NCCOc1ccc(C(C)(C)C)cc1	-0.292
Cc1nnc(N2CCN(C)CC2)c2nn(-c3ccc(Cl)cc3)c(C)c12	-0.299
O=C(C1CCN(S(=O)(=O)c2cccc3cccnc23)CC1)N1CCn2c1nc1ccccc12	-0.522

Compound	z-score
CSc1cc(-c2ccccc2)n(Cc2ccc(Cl)cc2Cl)c(=O)c1C#N	0.0211
CC(OC(=O)C(C)N1C(=O)C2C3C=CC(C4CC34)C2C1=O)C(=O)c1ccccc1 (stereo not drawn)	-0.0805
COc1ccc(C2(C(=O)NCCCN3CCOCC3)CCOCC2)cc1	-0.278
CCCCNC(=O)CC1N=C2c3ccccc3N=C(SCC(=O)Nc3ccccc3OC)N2C1=O (stereo not drawn)	-0.316
CCCCN1C(=O)C(NC(=O)c2cccnc2)(C(F)(F)F)C2=C1CC(C)(C)CC2=O (stereo not drawn)	0.0778
O=C1c2ccccc2NC2CCCCC12 (stereo not drawn)	-0.175
COCCn1c(=NC(=O)c2sc3ccccc3c2Cl)sc2cc(S(N)(=O)=O)ccc21	-0.436
CCOc1ccc(NC(=O)CSc2nnc(CCNC(=O)c3ccc(OC)cc3)n2C)cc1	-0.146
CCOC(=O)c1sc(/N=C/N(C)C)nc1C	-0.0764
N#CC1=C(N)N(c2ccccc2)C(c2ccccc2)C1(C#N)C#N (stereo not drawn)	-0.311
COc1cccc(-c2nc3n(n2)C(c2ccccc2Cl)C(C(N)=O)=C(C)N3)c1 (stereo not drawn)	1.07
CCCSc1nnc2n(-c3ccccc3OC)c(=O)c3c4c(sc3n12)CCC4	-1.87
Cc1ccc(Cn2c(CN3CC(C)OC(C)C3)nc3c2c(=O)n(C)c(=O)n3C)cc1 (stereo not drawn)	-0.564
CCc1nc(NCC(C)C)c(C#N)c2c1COC(C)(C)C2	-0.103
Nn1cc(-c2ccccc2)nc1SCC(=O)Nc1ccc2c(c1)OCO2	-0.105
CCCc1cc(=O)oc2cc(OCC(=O)OC)cc(OCC(=O)OC)c12	-0.342
N#Cc1cc2c(=O)n3ccccc3nc2n(Cc2ccco2)c1=NC(=O)c1ccco1	-0.248
Cc1cc(C)n2nnnc2c1C#N	0.205
CCC(C)c1ccccc1OCCOCCN1CCCC1 (stereo not drawn)	0.0652
Nc1c(-c2ccccc2)c(CSc2nc3ccccc3[nH]2)nn1-c1cccc(Cl)c1	-1.09
Cc1ccc(-c2nn(CC(=O)NCC3CCCO3)c(=O)c3ccccc23)cc1 (stereo not drawn)	-0.157
CC(C)c1ccc(C2C(C#N)=C(N)N3C(=C2C#N)Sc2ccccc23)cc1 (stereo not drawn)	0.0725

Compound	z-score
O=C(NC(Nc1nc2ccc([N+](=O)[O-])cc2s1)(C(F)(F)F)C(F)(F)F)c1ccccc1	active: 6.52
COc1ccc(CN2CCN(C(=O)c3cccs3)CC2)cc1	-0.485
CCOc1c(Br)ccc2c1sc1nc[nH]c(=O)c12	-0.237
O=[N+]([O-])c1cccc(-c2nc(-c3ccccc3)c(-c3cccs3)[nH]2)c1	-0.0655
Cc1ccc(C(=O)Oc2cccc(NC(=O)c3ccccc3)c2)cc1C	-0.0956
Cc1cccc(-c2noc(CN(C(=O)c3c(-c4ccccc4Cl)noc3C)C(C)C)n2)c1	0.261
CCSC1=N/C(=C\c2ccc(-c3ccccc3[N+](=O)[O-])o2)C(=O)S1	-0.287
O=C(CCCSc1nc2ccccc2[nH]1)NCc1ccc(Cl)cc1	-0.328
O=C(COC(=O)c1ccccc1[N+](=O)[O-])c1ccc(C2CCCCC2)cc1	0.0255
Cc1ccc(S(=O)(=O)NCCSc2nnnn2-c2ccccc2)cc1	-0.667
Cc1cnc(NC(=O)CSc2nc3ccccc3s2)s1	0.44
O=C(COC(=O)[C@@H]1CC(O)CN1S(=O)(=O)c1ccc([N+](=O)[O-])cc1)NC12CC3CC(CC(C3)C1)C2 (stereo partly drawn)	0.0589
O=C(/C=C/c1cccc([N+](=O)[O-])c1)NCCN1C(=O)S/C(=C\c2ccc(F)cc2)C1=O	-0.249
CC1CN(C2CCN(S(=O)(=O)c3ccc(F)cc3)CC2)CC(C)O1 (stereo not drawn)	-0.0455
O=c1c(Cc2ccc(Cl)cc2Cl)c(O)ccn1Cc1ccc(Cl)cc1	-0.479
CCOC(=O)N1CCN(Cc2nc(-c3cccc(C)c3)no2)CC1	-0.0353
Cc1ccc2cn[nH]c2c1NC(=S)NC(=O)c1ccccc1	0.256
Oc1c(CN2CCCCC2)cc(COCc2ccccc2)c2cccnc12	0.255
Cc1ccc(/C=N/NS(=O)(=O)c2ccc([N+](=O)[O-])cc2)o1	-0.0789
COc1ccc(CN2C(=O)CCC2(C)C(=O)NC2CCCCC2)c(OC)c1 (stereo not drawn)	-0.917
CC(C)CSc1nnc2[nH]c(=O)cc(N)n12	-0.321
C=CCn1c(SCc2nc3ccccc3nc2C)nnc1-c1ccoc1C	0.403

Compound	z-score
Cc1ccc(C2CC(=O)NC(SCc3ccccc3)=C2C#N)cc1 (stereo not drawn)	-0.422
O=c1c2ccccc2n(Cc2ccccc2F)c(=O)n1Cc1ccccc1F	-0.376
CCc1ccc(NC(=O)C(C)OC(=O)CCC(=O)c2cccs2)cc1 (stereo not drawn)	0.0294
Cn1c(Cn2nnc3ccccc32)nnc1SCC(N)=O	-0.159
CCOc1ccc(-c2[nH]ncc2Oc2ccccc2OCC)c(O)c1	-0.433
CCNC(=O)COC(=O)C1C(C(=O)OCC)=C(C)NC(C)=C1C(=O)OCC	-0.145
COc1ccc(Cn2nnnc2CN2CCOCC2)cc1	0.725
Cc1cccc(N2CCN(C(=O)c3ccc(NS(=O)(=O)c4c(C)noc4C)cc3)CC2)c1C	-0.359
c1ccc(-c2nnc3sc(-c4ccncc4)nn23)cc1	-0.611
CCCNC(=O)C1=C(C)C(=O)OC12CCC(C)CC2 (stereo not drawn)	0.192
CSCC[C@H](NC(=O)C(C)Oc1ccc(Cl)cc1)c1nc2ccccc2[nH]1 (stereo partly drawn)	-0.164
CC(=O)N1CCN(C(=O)CC2OC(=O)c3ccccc32)CC1 (stereo not drawn)	0.277
O=C(COc1ccc2c(c1)CCC2)NCc1ccccc1	-0.24
Cc1ccc(NC(=O)COc2ccccc2)c(NC(=O)c2ccccc2C)c1	0.00484
CCOC(=O)N1CCC(NC(=O)Cc2ccc(-n3c(=O)[nH]c4ccccc4c3=O)cc2)CC1	-0.188
COc1ccccc1NC(=O)C1=C(C)NC2=C(C(=O)CCC2)C1c1ccc2c(c1)OCO2 (stereo not drawn)	0.742
Cc1nc(-c2ccc(Br)cc2)ccc1C(=O)O	-0.162
Cc1c(C(=O)N2CCN(c3ncccn3)CC2)sc2nc3n(c(=O)c12)CCCC3	0.452
O=C(O)C1CCN(C(=O)c2scc3c2OCCO3)CC1	-0.53
Cc1ccc(S(=O)(=O)/N=C(\N)Nc2nc(C)c3ccccc3n2)cc1	-0.281
